Columns and labels:
total myostatin = assay: circulating total myostatin in serum by ELISA after acidification, dexamethasone study; type: in vivo, mouse; conditions: statement in description
Method: An assay of the target engagement of the antibodies, i.e., a pharmacodynamic assay, can be performed by measuring the binding of the antibodies to myostatin. In some embodiments, myostatin is detected as described by Lakshman et al. (Mol. Cell. Endocrinol. (2009) 302(1): 26-32), the contents of which are incorporated herein in their entirety. In some embodiments, samples are treated with acid to convert all myostatin forms to the mature growth factor; a biotinylated capture antibody that is specific for mature myostatin is added to a streptavidin coated plate and detected with a labeled antibody that is specific for mature myostatin.
Briefly, serum samples were acidified at low pH (e.g., pH ~2.5) to dissociate the bound antibody from the immune complex and to convert all myostatin in the sample to the active form of growth factor (i.e., mature myostatin). Samples were then neutralized and assayed for the presence of mature myostatin on ELISA plates coated with anti-mature myostatin antibodies as capture reagents.

human pro-myostatin [1] = target: T1, human pro-myostatin (Homo sapiens, UniProt O14793); assay: Biacore 8k SPR binding affinity, human pro-myostatin
Text: (§1) The Biacore™ 8k SPR system was utilized to evaluate the binding affinity of myostatin antibodies to biotinylated human, murine, and cyno pro-myostatin. Biotin CAPture kit and sensor chips (Cytiva) were utilized in these experiments to immobilize the various antigens, followed by flowing a range of concentrations of each of the test antibodies.

murine pro-myostatin = murine pro-myostatin (Mus musculus, UniProt O08689); assay: Biacore 8k SPR binding affinity, murine pro-myostatin
Text: as §1

cyno pro-myostatin = cyno pro-myostatin (Macaca fascicularis, UniProt Q95J86); assay: Biacore 8k SPR binding affinity, cyno pro-myostatin; set-up: species or system cynomolgus monkey
Text: as §1

human pro-myostatin [2] = target: T1, human pro-myostatin; assay: SEC-MALS binding stoichiometry; conditions: for SEC-MALS Result: mass of complex
Method: A combination of size exclusion chromatography and multi-angle light scattering (SEC-MALS) was used to determine the approximate mass and therefore the oligomeric state of the antibodies and their stoichiometry of binding to human promyostatin. The monoclonal antibody (mAb) or its Fab fragment was mixed with 50 μg of human pro-myostatin at a ratio of 1:1, 2:1 or 3:1 (antibody to antigen) for at least 24 hours at room temperature for immune complexes to form, filtered and injected into an analytical SEC column (Waters HPLC with a Superdex 200 10/300), flowed through a refractive index detector and then a miniDAWN® multi-angle light scattering detector to determine the mass. A full-length human-pro-myostatin with an N-terminal His6 tag (SEQ ID NO: 941) was used to express pro-myostatin in HEK cells. The signal peptide present in the construct is cleaved during biosynthesis. The resulting recombinant human pro myostatin was purified using the His6 tag (SEQ ID NO: 941) and used for the experiment.

[3] = dexamethasone-induced muscle atrophy mouse model; type: in vivo; conditions: dexamethasone treated mice, antibody 3 mg/kg/day; FIG. 6A, 9A
Text: To evaluate in vivo efficacy of the novel myostatin-selective inhibitors disclosed herein, the ability of the antibodies to preserve lean muscle mass was examined in a dexamethasone-induced atrophy mouse model. An excess of glucocorticoids directly stimulates myostatin production via interactions with a glucocorticoid response element in the myostatin promoter, thus inducing loss of muscle mass. As shown herein, antibodies of the disclosure prevented glucocorticoid-induced muscle atrophy.
C57BL6 male mice (n=8) at 13-14 weeks of age were given normal drinking water or water containing dexamethasone at a concentration of 2.5 mg/kg (17.5 grams dexamethasone per liter of drinking water) to induce atrophy. […] Body weight was measured daily. Body composition was measured by qNMR to determine lean mass pre-dosing, at day 7, and at day 14. After 14 days of dexamethasone exposure, the animals were terminated, and body weight and gastrocnemius weight were measured. Terminal blood for each animal was also collected.
C57BL6 male mice (n=8) at 13-14 weeks of age were given normal drinking water or water containing dexamethasone at a concentration of 2.5 mg/kg to induce atrophy. Mice were dosed at day 1 and day 7 with vehicle (PBS), IgG control (“hIgG”) or different doses of the test antibodies, as shown in Table 13. Muscle mass at days −1, 6 and 13 was measured using qNMR. At the end of the study (day 14), serum from each animal was collected and changes in body weight, body composition (qNMR), left and right gastrocnemius weight, and left and right quadriceps weight were measured. Statistical analysis was performed by ANOVA (Dunnett's multiple comparison test).
In a third experiment, antibody doses ranging from 0.3 mg/kg to 10 mg/kg were compared for their effectiveness in attenuating dexamethasone-induced atrophy. C57BL6 male mice (n=8) at 13-14 weeks of age were given normal drinking water or water containing dexamethasone at a concentration of 2.5 mg/kg to induce atrophy. Mice were dosed at day 1 and day 7 with vehicle (PBS), human IgG control (“hIgG”) or different doses of the test antibodies, as shown in Table 14 below. qNMR was used to measure muscle mass at days −1, 6 and 13. At day 14 the study ended, serum was collected and changes in body composition (qNMR), left and right gastrocnemius weight, and left and right quadriceps weight were determined. Circulating myostatin was measured in the serum of a terminal bleed taken at day 14. Statistical analysis was performed by ANOVA (Dunnett's multiple comparison test).
In a fourth experiment, antibodies Ab109 and Ab133 were compared to control human IgG and Ab2 in the same protocol as described above.

[4] = AC-SINS self-interaction (aggregation behavior); type: physicochemical; conditions: cutoff: shift of >5 nm in plasmon wavelength
Method: Developability profiles may be assessed by well-known parameters. […] In some embodiments, antibodies are tested for aggregation behavior by affinity capture self-interaction nanoparticle spectroscopy (AC-SINS). […] Typically, gold nanoparticles are coated with polyclonal antibodies that are specific for human monoclonal antibodies and the monoclonal antibodies are captured by the conjugates. The polyvalency of the monoclonal antibody conjugates amplifies the attractive self-interactions, i.e., aggregation between the adsorbed antibodies. This leads to reduced inter-particle separation distances and is detected by a change in color of the gold colloid solution, which may be quantified by a change in the wavelength of maximum absorbance (plasmon wavelength). Plasmon wavelength of 530 nm may be used as the reported value for unaggregated gold nanoparticles. Antibodies with a tendency to self-aggregate shift the plasmon wavelength toward the red end of the spectrum. In some embodiments, a shift of greater than 5 nm (i.e., >5 nm) in plasmon wavelength may be used as the cutoff indicative of self-interacting antibodies.
The antibodies were tested for aggregation behavior by affinity capture self-interaction nanoparticle spectroscopy (AC-SINS). Gold nanoparticles were coated with polyclonal antibodies that are specific for human monoclonal antibodies and the monoclonal antibodies are captured by the conjugates. The polyvalency of the monoclonal antibody conjugates amplifies the attractive self-interactions, i.e., aggregation between the adsorbed antibodies. This leads to reduced inter-particle separation distances and is detected by a change in color of the gold colloid solution, which was quantified by a change in the wavelength of maximum absorbance (plasmon wavelength). Plasmon wavelength of 530 nm was used as the reported value for unaggregated gold nanoparticles. Antibodies with a tendency to self-aggregate shift the plasmon wavelength toward the red end of the spectrum. A shift of greater than 5 nm (i.e., >5 nm) in plasmon wavelength was used as the cutoff indicative of self-interacting antibodies.

B1: Ab132: anti-pro/latent myostatin antibody; CDR sequences in Table 2d (antibody)
heavy: EVQLVESGGGLVQPGGSLRLSCAASGFTFSSYGMSWVRQAPGKGLELVASFTGSGGTYYPDSVKGRFTISRDNAKNSLYLQMNSLRAEDTAVYYCARDLLIRFLEWSHYYGMDVWGQGTTVTVSSASTKGPSVFPLAPCSRSTSESTAALGCLVKDYFPEPVTVSWNSGALTSGVHTFPAVLQSSGLYSLSSVVTVPSSSLGTKTYTCNVDHKPSNTKVDKRV[human IgG4 Fc with S228P (EU numbers) left out]
light: DIVMTQSPLSLPVTPGEPASISCRSSQSLLHSSGHNFLHWYLQKPGQSPQLLIYEVSNRVSGVPDRFSGSGSGTDFTLKISRVEAEDVGVYYCQQQTQYPPTFGGGTKVEIKRTVAAPSVFIFPPSDEQLKSGTASVVCLLNNFYPREAKVQWKVDNALQSGNSQESVTEQDSKDSTYSLSSTLTLSKADYEKHKVYACEVTHQGLSSPVTKSFNRGEC
accumulation of myostatin in serum of dosed subjects, compared with apitegromab (total myostatin): little or no accumulation of total myostatin

B2: Ab123: anti-pro/latent myostatin antibody; CDR sequences in Table 2d (antibody)
heavy: EVQLVESGGGLVQPGGSLRLSCAASGFTFSKYDMSWVRQAPGKGLELVASISSSGGTRYYPDSVKGRFTISRDNAKNSLYLQMNSLRAEDTAVYYCAKDLWVASPGYGMDVWGQGTTVTVSSASTKGPSVFPLAPCSRSTSESTAALGCLVKDYFPEPVTVSWNSGALTSGVHTFPAVLQSSGLYSLSSVVTVPSSSLGTKTYTCNVDHKPSNTKVDKRV[human IgG4 Fc with S228P (EU numbers) left out]
light: DIVMTQSPLSLPVTPGEPASISCRSSQSLLHSSGHNYLHWYLQKPGQSPQLLIYLGSIRAPGVPDRFSGSGSGTDFTLKISRVEAEDVGVYYCMQALLNPPTFGGGTKVEIKRTVAAPSVFIFPPSDEQLKSGTASVVCLLNNFYPREAKVQWKVDNALQSGNSQESVTEQDSKDSTYSLSSTLTLSKADYEKHKVYACEVTHQGLSSPVTKSFNRGEC
Ka (human pro-myostatin [1]): 1.38e+06 M⁻¹ s⁻¹ | Kd (1/s) (human pro-myostatin [1]): 0.000543 s⁻¹ | Ka (murine pro-myostatin): 1.25e+06 M⁻¹ s⁻¹ | Kd (1/s) (murine pro-myostatin): 0.000772 s⁻¹ | Ka (cyno pro-myostatin): 1.59e+06 M⁻¹ s⁻¹ | Kd (1/s) (cyno pro-myostatin): 0.000539 s⁻¹ | MALS observed molecular weight of Fab:pro-myostatin complex (human pro-myostatin [2]; Fab fragment): 137.5 kDa | SEC-MALS Result (human pro-myostatin [2]; Fab fragment, input ratio Fab:pro-myostatin 2:1): 141.2 kDa | SEC-MALS Result (human pro-myostatin [2]; Fab fragment, input ratio Fab:pro-myostatin 3:1): 144.5 kDa | SEC-MALS Result (human pro-myostatin [2]; full-length mAb, input ratio mAb:pro-myostatin 1:1): 236.1 kDa | SEC-MALS Result (human pro-myostatin [2]; full-length mAb, input ratio mAb:pro-myostatin 3:1): 237.5 kDa | maintenance of body weight (percent change from baseline) [3]: to a greater extent than Ab2

B3: Ab134: anti-pro/latent myostatin antibody; CDR sequences in Table 2d (antibody)
heavy: EVQLVESGGGLVQPGGSLRLSCAASGSAFSSYGMSWVRQAPGKGLELVASINSNGGSTYYPDSVKGRFTISRDNAKNSLYLQMNSLRAEDTAVYYCARDLLVEFLKWSHYYGMDVWGQGTTVTVSSASTKGPSVFPLAPCSRSTSESTAALGCLVKDYFPEPVTVSWNSGALTSGVHTFPAVLQSSGLYSLSSVVTVPSSSLGTKTYTCNVDHKPSNTKVDKRV[human IgG4 Fc with S228P (EU numbers) left out]
light: DIVMTQSPLSLPVTPGEPASISCRSSQSLLHSSGHNFLHWYLQKPGQSPQLLIYEVSNRVSGVPDRFSGSGSGTDFTLKISRVEAEDVGVYYCMQQTQYPPTFGGGTKVEIKRTVAAPSVFIFPPSDEQLKSGTASVVCLLNNFYPREAKVQWKVDNALQSGNSQESVTEQDSKDSTYSLSSTLTLSKADYEKHKVYACEVTHQGLSSPVTKSFNRGEC
aggregation behavior by AC-SINS [4]: did not display aggregation behavior

B4: Ab111: anti-pro/latent myostatin antibody; CDR sequences in Table 2d (antibody)
heavy: QVQLVQSGAEVKKPGASVKVSCKVSGYTFTSNDIHWVRQAPGKGLEWMGGIFPIFGTTIYAQKFQGRVTMTEDTSTDTAYMELSSLKSEDTAVYYCAREGLGYDFDYWGQGTLVTVSSASTKGPSVFPLAPCSRSTSESTAALGCLVKDYFPEPVTVSWNSGALTSGVHTFPAVLQSSGLYSLSSVVTVPSSSLGTKTYTCNVDHKPSNTKVDKRV[human IgG4 Fc with S228P (EU numbers) left out]
light: DIQMTQSPSSVSASVGDRVTITCRASQNIGNWLAWYQQKPGKAPKLLIYSASALQSGVPSRFSGSGSGTDFTLTISSLQPEDFANYYCQQSYGAPMYSFGGGTKVEIKRTVAAPSVFIFPPSDEQLKSGTASVVCLLNNFYPREAKVQWKVDNALQSGNSQESVTEQDSKDSTYSLSSTLTLSKADYEKHKVYACEVTHQGLSSPVTKSFNRGEC
aggregation behavior by AC-SINS [4]: displayed aggregation behavior

B5: Ab113: anti-pro/latent myostatin antibody; CDR sequences in Table 2d (protein)
heavy chain: QVQLVQSGAEVKKPGASVKVSCKVSGYLLTELSIHWVRQAPGKGLEWMGGIIPSFGTAIYAQKFQGRVTMTEDTSTDTAYMELSSLKSEDTAVYYCAISYSGFDLLPLDKWGQGTLVTVSSASTKGPSVFPLAPCSRSTSESTAALGCLVKDYFPEPVTVSWNSGALTSGVHTFPAVLQSSGLYSLSSVVTVPSSSLGTKTYTCNVDHKPSNTKVDKRV[human IgG4 Fc with S228P (EU numbers) left out]
light chain: DIQMTQSPSSVSASVGDRVTITCRASQHISTWLAWYQQKPGKAPKLLIYYASSLQGGVPSRFSGSGSGTDFTLTISSLQPEDFANYYCLQTYTYPRTFGGGTKVEIKRTVAAPSVFIFPPSDEQLKSGTASVVCLLNNFYPREAKVQWKVDNALQSGNSQESVTEQDSKDSTYSLSSTLTLSKADYEKHKVYACEVTHQGLSSPVTKSFNRGEC
aggregation behavior by AC-SINS [4]: displayed aggregation behavior

— patent US20260209325A1, “SELECTIVE AND POTENT INHIBITORY ANTIBODIES OF MYOSTATIN ACTIVATION” (SCHOLAR ROCK, INC., priority 2022, published 2026)
